The whole screen tested about 410,000 compounds, of which about 530 (0.13%) were called active. Inconclusive means that the source gave no clear call. Such entries were picked first, then a sample of the others. Calls come from the whole dose curve; as a rule, active = well fitted inhibition curve with a large enough effect; inconclusive = small, poorly fitted or top-dose-only effect, or another doubt; inactive = no such curve, though single readings can be large or run the other way. Potencies of inconclusive entries are doubtful fits and often do not repeat.
experiment: qHTS of GLP-1 Receptor Inverse Agonists: Cytotox Screen; details: HEK293 cAMP-luciferase reporter cells, luminescence, 24 h; series mostly up to 38.3 µM
How it was run: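 Cells in DMEM/10% Nu serum/1% pen-strep, 1536-well format. Pre-incubated 12 h, dosed with 23 nL compound, incubated a further 24 h. Luciferase detection, 12 min at room temp, luminescence.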
Potency is the fitted concentration of half-maximal effect.

Row | SMILES | Potency
1 | COC(=O)c1ccc(Nc2cc(C)nc3ccccc23)cc1 | inconclusive: 14.1 µM [inhibitor, partial curve, poor fit]
2 | CC1(C)CC(=O)C=C(NC2=CC3OC(c4ccccc4)OCC3OC2=O)C1 (stereo unspecified) | inconclusive: 28.2 µM [inhibitor, single point]
3 | CN(C)CCCN(C(=O)c1cc(-c2cccs2)nc2ccccc12)c1nc2ccc(F)cc2s1 | inconclusive: 11.2 µM [inhibitor, partial curve, poor fit]
4 | Cc1ccc(S(=O)(=O)N(CC(=O)Nc2ccccc2C(=O)O)c2ccccc2C)cc1 | inactive
5 | Cc1ccc(Cc2c(-c3ccc(C)cc3)nc3ccc(Br)cn23)cc1 | inconclusive: 22.4 µM [inhibitor, single point]
6 | COc1ccc(C(=O)NC(=S)Nc2ccc(Cc3ccncc3)cc2)cc1 | inconclusive: 10 µM [inhibitor, partial curve]
7 | COc1ccc(OC)c(C(C)NC(=S)NC2CCCCC2)c1 (stereo unspecified) | inconclusive: 28.2 µM [inhibitor, single point]
8 | CC(C)CNC(=S)NC(=O)c1ccc([N+](=O)[O-])cc1 | inconclusive: 11.2 µM [inhibitor, partial curve, poor fit]
9 | COCCNC(=O)C1(C)CCCN(Cc2ccc(-c3ccccn3)cc2)C1 (stereo unspecified) | inactive
10 | COc1ccc(-c2nc3sc(CCNC(=O)C(=O)Nc4cc(F)ccc4F)c(C)n3n2)cc1 | inactive
11 | CCN(CC)c1ccc(NC(=O)c2cc(OC)cc(OC)c2)c(C)c1 | inconclusive: 0.355 µM [inhibitor, full curve]
12 | N/C(=C\C(=O)c1cc(Cl)ccc1O)C(Cl)(Cl)Cl | inconclusive: 4.47 µM [inhibitor, partial curve, poor fit]
13 | CCCCOc1ccccc1Cn1c(=O)sc2ccccc21 | inactive
14 | COc1ccc(CNC(=O)C(C)N2CCN(S(=O)(=O)c3ccccc3F)CC2)cc1 (stereo unspecified) | inactive
15 | O=c1[nH]c2ccccc2cc1-c1noc(-c2cccnc2)n1 | inactive
16 | CC(Oc1ccc(Cl)cc1Cl)C(=O)NC(=S)N1CCc2ccccc21 (stereo unspecified) | inconclusive: 28.2 µM [inhibitor, single point]
17 | N#C/C(=N\Nc1cc(Cl)cc(Cl)c1)c1nnc2n1CCCCC2 | inconclusive: 11.2 µM [inhibitor, partial curve, poor fit]
18 | CCOc1ccc(CN2C(=O)C(=O)c3cccc(C)c32)cc1OC | inconclusive: 28.2 µM [inhibitor, single point]
19 | Cc1ccc(N(Cc2ccccc2)C(=O)c2cc(S(=O)(=O)N3CCOCC3)ccc2C)cc1 | inconclusive: 15.8 µM [inhibitor, single point]
20 | C=CCNC(=O)/C(C#N)=C/c1cn(-c2ccccc2)nc1-c1ccc(OC)c([N+](=O)[O-])c1 | inconclusive: 28.2 µM [inhibitor, single point]
21 | O=c1[nH]c2cc([N+](=O)[O-])ccc2c2ccc([N+](=O)[O-])cc12 | inactive

Row | SMILES | Potency
22 | C/C=C(\C)C(=O)OC1[C@H](OC(C)=O)C2(CO)C(CC1(C)C)C1=CCC3C4(C)CCC(O[C@@H]5O[C@H](C(=O)O)[C@@H](O[C@@H]6O[C@H](CO)[C@@H](O)[C@H](O)[C@H]6O)[C@H](O)[C@H]5O[C@H]5O[C@H](CO)[C@@H](O)[C@H](O)[C@H]5O)[C@](C)(CO)C4CCC3(C)[C@]1(C)C[C@H]2O (stereo partly specified) | inconclusive: 11.2 µM [inhibitor, partial curve]
23 | COC(=O)c1cnc(Oc2ccc(NC(=O)NC(=O)c3c(OC)cccc3OC)cc2)cc1C(F)(F)F | inconclusive: 0.447 µM [inhibitor, full curve, poor fit]
24 | COc1ccc(CNC(NC(=O)c2ccccc2)(C(F)(F)F)C(F)(F)F)cc1 | inactive
25 | Fc1ccc(C(c2nnnn2Cc2cccs2)N2CCN(c3ccccc3)CC2)cc1 (stereo unspecified) | inactive
26 | COc1cc(NC(=O)C(CC(C)C)N2Cc3ccccc3C2=O)cc(OC)c1 (stereo unspecified) | inactive
27 | O=C(NC(=S)N(CCCCO)C1CCCCC1)c1sc2ccccc2c1Cl | inconclusive: 31.6 µM [inhibitor, single point]
28 | CC(C)CCNC(=O)c1cc(-c2ccc(Br)s2)nc2ccccc12 | inactive
29 | Cc1[nH]c2c(C)cccc2c1CN1CCC(CO)(Cc2ccccc2)CC1 | inconclusive: 12.6 µM [inhibitor, single point]
30 | CC(C)CNC(=O)CN1C(=O)NC2(CCc3ccccc32)C1=O (stereo unspecified) | inconclusive: 12.6 µM [inhibitor, partial curve, poor fit]
31 | Cc1ccc(S(=O)(=O)Nc2cc(-c3nn(C)c(=O)c4ccccc34)ccc2N2CCOCC2)cc1 | inconclusive: 3.55 µM [inhibitor, full curve, poor fit]
32 | Nc1ccc(SC(F)(F)F)cc1C(=O)c1ccccc1 | inconclusive: 28.2 µM [inhibitor, single point]
33 | Cc1c(C#N)c(O)n(CCO)c(=O)c1N=Nc1ccc(S(N)(=O)=O)cc1 | inconclusive: 8.91 µM [inhibitor, partial curve, poor fit]
34 | CCCCCC1CCC(c2ccc(C(N)=O)cc2)CC1 (stereo unspecified) | inactive
35 | CC1C(O)=C(c2nc3ccccc3[nH]2)C(=N)N1c1ccccc1 (stereo unspecified) | inconclusive: 25.1 µM [inhibitor, single point]
36 | Oc1ccc(N=Nc2n[nH]c(-c3ccc(Br)cc3)n2)cc1 | inconclusive: 14.1 µM [inhibitor, partial curve, poor fit]
37 | CCN(CCN(C)C)C(=O)c1ccc2c(c1NCCO)C(=O)c1ccccc1C2=O | inconclusive: 28.2 µM [inhibitor, single point]
38 | O=C(Nc1ccc(OCC(F)(F)C(F)F)c(C(F)(F)F)c1)c1ccccc1O | inconclusive: 28.2 µM [inhibitor, single point]
39 | O=c1c2ccccc2nc(-c2cccs2)n1-c1ccc2ccccc2c1 | inconclusive: 28.2 µM [inhibitor, single point]
40 | COc1ccc(Cl)cc1NC(=O)C[n+]1ccccc1 | inactive
41 | c1ccc(CN2CCN(c3nc(NCc4ccco4)c4ccccc4n3)CC2)cc1 | inconclusive: 28.2 µM [inhibitor, single point]

Source: PubChem BioAssay AID624418 (National Center for Advancing Translational Sciences (NCATS), 2012)
